# Measured values published in the BET-seq Pho4 binding data (Le et al. 2018).
# This is one part of the list. The energies were worked out here from pooled read counts, against the library average; single values are noisy.
# Target: T1, Pho4 (S. cerevisiae) (UniProt P07270)
# T1 sequence: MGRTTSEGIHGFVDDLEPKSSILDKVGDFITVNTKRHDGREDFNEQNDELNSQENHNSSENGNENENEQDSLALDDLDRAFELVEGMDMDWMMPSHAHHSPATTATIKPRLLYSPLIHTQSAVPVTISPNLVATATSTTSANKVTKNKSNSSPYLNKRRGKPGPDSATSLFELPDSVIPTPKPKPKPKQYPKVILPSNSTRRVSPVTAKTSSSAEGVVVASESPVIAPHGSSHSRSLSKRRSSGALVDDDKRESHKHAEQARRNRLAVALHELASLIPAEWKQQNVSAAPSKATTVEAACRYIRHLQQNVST
# Test: relative binding free energy (BET-seq); higher = weaker binding
# Conditions: reference: library average
row,Sequence,relative binding free energy [kcal/mol]
1,GCATGCACGTGCGTGG,-0.13
2,TTGGTCACGTGATGAA,0.19
3,TTGTGCACGTGTCACG,0.03
4,ACGGGCACGTGCGGAG,-0.11
5,TCGTCCACGTGGTGTA,-0.08
6,CATGGCACGTGTGTGC,-0.01
7,ATTAGCACGTGGATAT,-0.01
8,GTTGACACGTGTGAAT,0.13
9,TGAGTCACGTGAAGTG,0.39
10,AGTAACACGTGTTGGC,-0.03
11,AGTTTCACGTGGCATT,0.22
12,TGCTACACGTGGGTGG,-0.16
13,ATGATCACGTGCATGG,0.09
14,TGGAGCACGTGCGTTG,-0.27
15,ATGTCCACGTGATGTT,0.17
16,TGTGACACGTGGTCTA,-0.2
17,TGAGGCACGTGAATTG,-0.01
18,TGCATCACGTGCTTGG,0.15
19,GATGGCACGTGTCTTG,0.1
20,TTCTTCACGTGGTTTA,0.28
21,TCTGTCACGTGTAAAG,0.2
22,ATTAGCACGTGGGCTG,-0.16
23,TATAACACGTGAGGGA,0.17

row,Sequence,relative binding free energy [kcal/mol]
1,GGGAGCACGTGGAGTA,-0.15
2,TTGGGCACGTGAACGA,0.32
3,GGAGTCACGTGTGGCT,0.11
4,TTTTGCACGTGTTGTT,0.05
5,TCTGTCACGTGTTTGT,-0.06
6,TTGTGCACGTGCTGGA,-0.09
7,GTAATCACGTGCGAGG,0.17
8,GTTAACACGTGGCTTT,0.12
9,AATTACACGTGGGGAG,-0.05
10,CTAGGCACGTGCGGGT,-0.26
11,CGAGGCACGTGTTTAG,-0.09
12,GGAGGCACGTGGTTAT,-0.08
13,ATGGACACGTGAGTAT,0.17
14,TTACGCACGTGGGATA,-0.15
15,GAAGTCACGTGTAGTG,0.09
16,GAGTACACGTGGTAGA,0.12
17,TTTTACACGTGGGTCT,0.01
18,AGAGTCACGTGTATAT,0.16
19,CTTTTCACGTGTGGCT,0.26
20,CTGTGCACGTGATTAT,-0.03
21,GTGTACACGTGTGTAA,0.04
22,GGGCTCACGTGATGGT,0.38
23,GGGATCACGTGTTGGA,0.17

row,Sequence,relative binding free energy [kcal/mol]
1,TAGTGCACGTGGGAAA,-0.06
2,TTTGTCACGTGCATGC,-0.05
3,GTGTTCACGTGGCGGC,0.18
4,GTCATCACGTGTCGGT,0.16
5,TTAAGCACGTGGTAGC,-0.13
6,ACGGACACGTGGTGGG,-0.03
7,GTTTGCACGTGCGCAG,0.03
8,CTAGTCACGTGATTGT,0.14
9,TGTAGCACGTGAGTTC,0.12
10,TTTATCACGTGATGGG,0.33
11,TTTGTCACGTGTTTTG,0.1
12,AGTCGCACGTGATGTT,0.21
13,TGTAACACGTGATTTT,0.23
14,ACTGTCACGTGGTTGG,0
15,TTATTCACGTGTGAGT,0.36
16,TTAAGCACGTGGGTGT,-0.3
17,ATGGACACGTGGGGTG,-0.05
18,CATTTCACGTGCGTAT,0.33
19,CGAAACACGTGTTGGT,0
20,TGTCGCACGTGAGGAG,0.17
21,ACGGGCACGTGTGTTT,-0.03
22,TCGGGCACGTGATTTT,-0.01
23,GCGAGCACGTGGTTTA,-0.06

row,Sequence,relative binding free energy [kcal/mol]
1,GTATTCACGTGGTCTT,0.14
2,CTTTACACGTGTGGTA,0.02
3,TGCCGCACGTGTTGTG,0.01
4,TTGATCACGTGGCGTT,0.04
5,TACTACACGTGTAGTT,0.09
6,TGTGTCACGTGGCGTT,0.05
7,GTGGTCACGTGCGCGG,0.02
8,TCTTTCACGTGGTGCT,0.19
9,GGGTACACGTGTTAGT,0.1
10,TAGGACACGTGGCTAG,0.06
11,CTTTTCACGTGGGGAG,0.06
12,TTTAGCACGTGTGTTT,0.06
13,GGGAACACGTGGGAAG,0.08
14,GAAAGCACGTGAGTTT,0.32
15,AAACTCACGTGTTGTG,0.14
16,TCGTACACGTGGGGTC,-0.06
17,GCAGGCACGTGCTGTG,-0.09
18,ATTATCACGTGGCGTT,0.09
19,AGCGTCACGTGGAAGG,0.29
20,GGGTACACGTGGTTGC,-0.02
21,ATCTGCACGTGTGGCG,0
22,CTGGTCACGTGAGTGT,0.2
23,GGGTGCACGTGAACGT,0.2

row,Sequence,relative binding free energy [kcal/mol]
1,GGGAGCACGTGACGGT,0.11
2,TTTCTCACGTGCAGTG,0.22
3,GGGATCACGTGGATAG,0.22
4,TGTGCCACGTGTGTAG,-0.05
5,ATGTACACGTGTGGTA,0.17
6,ATGAGCACGTGAGTAG,0.05
7,AGGCGCACGTGAATGG,0.12
8,GTTTTCACGTGATATG,0.28
9,TAATGCACGTGCGGGT,-0.03
10,GTAGGCACGTGGGTCC,-0.25
11,AGAGACACGTGTGGAG,0.11
12,TAGGTCACGTGTATTT,0.03
13,ATTCACACGTGTGTTT,0.1
14,TACTGCACGTGGCTGT,-0.1
15,AGTTGCACGTGCGATA,0.01
16,ATGTGCACGTGCACGT,-0.03
17,GTGTACACGTGTTTGT,0.05
18,TTTTTCACGTGATGTC,0.29
19,TTTTACACGTGAATCT,0.38
20,TTTGCCACGTGATTAT,0.12
21,GTGTACACGTGTAATT,0.2
22,ATGGTCACGTGTAGGA,0.14
23,TAGAGCACGTGTGTTG,-0.01
